Results reported in PubChem BioAssay AID624296 (National Center for Advancing Translational Sciences (NCATS), 2012).
In all, about 350,000 compounds went through this assay and about 9,900 (2.8%) were called active. The shares of active, inactive and inconclusive entries below differ from those in the screen. Calls come from the whole dose curve; as a rule, active = well fitted activation curve with a large enough effect; inconclusive = small, poorly fitted or top-dose-only effect; inactive = no such curve, though single readings can be large or run the other way. Potencies of inconclusive entries are left out as doubtful fits.

Assay: A quantitative high throughput screen for small molecules that induce DNA re-replication in MCF 10a normal breast cells. For activity, positive = re-replication: % of control where 0% means no effect. Note: nearly all actives have a fitted effect of over 50% in size.
Conditions: MCF 10A DNA re-replication, Hoechst nuclear intensity, 48 h; activity, positive = re-replication: at 46.1 µM (top of the series)
Potency is the fitted concentration of half-maximal effect; tags give direction and shape of the fitted curve.

| Structure (SMILES) | activity, positive = re-replication | Potency |
| --- | --- | --- |
| Cc1cc(C)c2c(N)c(C(=O)c3ccccc3)sc2n1 | inactive: 2.51% |  |
| CCCC(=O)c1c[nH]c(C(=O)NCc2cccnc2)c1 |  | inconclusive [activator, single point] |
| CC(=O)OCCN(CCCn1c(-c2ccncc2)nc2ccccc21)c1nc(-c2ccc(C)cc2)cs1 |  | inconclusive [activator, single point] |
| Cc1ccc(/C=N/NC(=O)c2cc3ccccc3cc2O)o1 |  | inconclusive [activator, partial curve, poor fit] |
| O=C(COc1coc(CN2CCCc3ccccc32)cc1=O)Nc1cccc([N+](=O)[O-])c1 | inactive: -0.404% |  |
| CCc1oc2c(C)c(O)ccc2c(=O)c1-c1ccc2ccccc2n1 |  | inconclusive [activator, single point] |
| CC(C)C1=C2CCCCC2NC(=O)N1 (centres undefined) |  | inconclusive [activator, partial curve, poor fit] |
| OC(c1ccccc1)C(NCCNCc1ccccc1)c1ccccc1 (centres undefined) |  | inconclusive [activator, partial curve, poor fit] |
| Cc1ccc(N2CC(C(=O)Nc3ncc([N+](=O)[O-])s3)CC2=O)cc1 (centres undefined) | inactive: -1.39% |  |
| COc1cccc2sc(NNC(=O)c3nc4ccccc4s3)nc12 |  | inconclusive [activator, single point] |
| COc1ccc(CCC(C)NC2CCCCCCC2)cc1 (centres undefined) |  | inconclusive [activator, single point] |
| COc1cccc2cc(C(C)N(CCCN3CCOCC3)C(=S)Nc3cccc(C)c3)oc12 (centres undefined) |  | inconclusive [activator, partial curve, poor fit] |
| CCC[C@@H](NS(=O)(=O)c1ccc(C)cc1)C(=O)Oc1ccc2c3c(c(=O)oc2c1)CCC3 |  | inconclusive [activator, single point] |
| O=C(CSCc1ccc(Cl)cc1)Nc1ccccc1C(=O)N1CCOCC1 | inactive: -0.0349% |  |
| COc1ccc(N2CCN(C(=O)c3ccc(CNS(=O)(=O)c4cc(C)ccc4C)cc3)CC2)cc1 |  | inconclusive [activator, single point] |
| Cc1cc(NC(=S)NC(=O)c2ccco2)c2ccccc2n1 |  | inconclusive [activator, single point] |
| Cc1cc(NCc2ccco2)n2c(nc3ccccc32)c1C#N |  | active: 16.4 µM |
| Cc1ccc(S(=O)(=O)NNc2nc3ccccc3nc2C(F)(F)F)cc1 |  | inconclusive [activator, partial curve, poor fit] |
| CCn1c2ccccc2c2cc(NC(=S)N3CCOCC3)ccc21 |  | inconclusive [activator, single point] |
| COc1ccc(Cl)cc1NC(=O)C(C)N(C)Cc1cccc(Cl)c1Cl (centres undefined) |  | inconclusive [activator, partial curve, poor fit] |
| O/C(=C\c1nc2ccccc2[nH]1)c1cccs1 |  | inconclusive [activator, single point] |
| COc1ccc(S(=O)(=O)N2CCOCC2)cc1NC(=O)COc1cccnc1[N+](=O)[O-] |  | active: 0.58 µM |

| Structure (SMILES) | activity, positive = re-replication | Potency |
| --- | --- | --- |
| CN(C)c1ccc(C(CNC(=O)c2ccccc2F)c2c[nH]c3ccccc23)cc1 (centres undefined) | inactive: 16.8% |  |
| Cn1cc(C(=O)N/N=C/c2ccc3c(c2)OCO3)c2ccccc21 |  | inconclusive [activator, single point] |
| CCSc1nc2sc3c(c2c(=O)n1-c1ccccc1C)CCN(C)C3 |  | inconclusive [activator, single point] |
| Cc1nc2c3cnn(-c4ccccc4)c3ncn2n1 |  | inconclusive [activator, single point] |
| Cc1ccc(C(C)C)c(OCc2nnc(SCC(=O)Nc3nccs3)n2C)c1 |  | inconclusive [activator, single point] |
| COc1ccc(CCNC(=O)c2c(O)c3ccccc3n(C)c2=O)cc1 |  | inconclusive [activator, partial curve, poor fit] |
| O=C1OCc2ccc([N+](=O)[O-])cc21 | inactive: -28.8% |  |
| COC(=O)/C=C1/S/C(=N/NC(=O)c2ccc(Cl)cc2Cl)NC1=O |  | inconclusive [activator, single point] |
| COc1ccc(NC(=O)COC(=O)/C=C/C(=O)OCC(=O)Nc2ccc(OC)c(Cl)c2)cc1Cl |  | inconclusive [activator, full curve] |
| COc1ccc(C(=O)NNC(=O)C(=O)NC(C)c2ccccc2)cc1OC (centres undefined) |  | inconclusive [activator, single point] |
| NS(=O)(=O)c1ccc(NC=C2C(=O)OC3(CCCCC3)OC2=O)cc1 |  | inconclusive [activator, single point] |
| Cc1ccc(C(=O)Nc2ccccc2C(=O)NCc2ccco2)cc1S(=O)(=O)N1CCCCC1 | inactive: 4.49% |  |
| CC(C)(C)c1ccc(S(=O)(=O)N2CCN(C3CCCC3)CC2)cc1 | inconclusive: -40.9% [activator] |  |
| Cc1ccc(S(=O)(=O)N2c3ccccc3CC2C)cc1 (centres undefined) |  | inconclusive [activator, partial curve, poor fit] |
| CCOC(=O)N1CCN(C(=S)NC(=O)c2ccc(F)cc2)CC1 | inactive: 4.39% |  |
| O=C(Nc1ccccn1)c1ccc(C(=O)Nc2ccccn2)cc1 | inactive: -5.6% |  |
| Cc1cc(NC(=O)CSc2ccc3nnc(-c4ccc(Cl)cc4)n3n2)no1 | inactive: 26.8% |  |
| COc1cc(S(=O)(=O)N2CCCCC2)c(OC)cc1Br |  | inconclusive [activator, partial curve, poor fit] |
| N#Cc1ccc(C(=O)OCC(=O)Nc2cccc(S(=O)(=O)NC3=NCCC3)c2)cc1 | inactive: 1.73% |  |
| O=C(O)c1cccc(NC(=S)NC(=O)c2cncc(Br)c2)c1 | inactive: 10.2% |  |
| CCCCCCC(=O)NNC(=O)c1c(O)c2ccccc2n(CCC)c1=O |  | inconclusive [activator, partial curve] |
| COc1cccc(CN2CCC(N(CCc3ccccc3)Cc3ccccc3)CC2)c1OC |  | inconclusive [activator, single point] |
